{"source": "PubChem BioAssay AID1159614", "about": "(National Center for Advancing Translational Sciences (NCATS), 2016)", "note": "Among all 45,000 compounds or so, about 65 (0.1%) were called active. Calls follow the shape of the dose curve; as a rule, active = well fitted activation curve with a large enough effect; inconclusive = small, poorly fitted or top-dose-only effect; inactive = no such curve, though single readings can be large or run the other way. This is one part of the list.", "data": [{"biological_target": "Galactocerebrosidase (Homo sapiens) (UniProt P54803)", "sequence (P54803 whole entry, looked up)": "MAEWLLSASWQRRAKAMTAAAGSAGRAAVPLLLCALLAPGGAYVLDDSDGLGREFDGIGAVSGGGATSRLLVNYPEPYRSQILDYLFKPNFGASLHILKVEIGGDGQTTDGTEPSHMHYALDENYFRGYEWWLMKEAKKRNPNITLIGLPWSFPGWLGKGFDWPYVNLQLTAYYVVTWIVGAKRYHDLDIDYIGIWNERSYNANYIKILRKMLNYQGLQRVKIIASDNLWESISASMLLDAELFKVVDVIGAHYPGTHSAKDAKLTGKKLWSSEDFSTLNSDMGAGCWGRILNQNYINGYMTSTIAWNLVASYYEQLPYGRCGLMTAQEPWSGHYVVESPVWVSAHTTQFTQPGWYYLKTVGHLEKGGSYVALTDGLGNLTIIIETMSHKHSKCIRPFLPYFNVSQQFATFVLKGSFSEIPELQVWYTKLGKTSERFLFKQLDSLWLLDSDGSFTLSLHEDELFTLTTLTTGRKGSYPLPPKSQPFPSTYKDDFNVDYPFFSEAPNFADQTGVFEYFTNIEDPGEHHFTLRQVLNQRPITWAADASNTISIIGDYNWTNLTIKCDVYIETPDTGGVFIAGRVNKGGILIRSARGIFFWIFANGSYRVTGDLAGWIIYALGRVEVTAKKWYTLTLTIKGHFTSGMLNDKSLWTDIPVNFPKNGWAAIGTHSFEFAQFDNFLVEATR", "experiment": "A Novel Cell-Based Assay to Identify Small Molecules for B -Galactocerebrosidase; also: 0% is about no effect; nearly all actives have a fitted effect of over 65% in size", "details": "145M-Twi-hGALC-G270D cells (Twitcher mouse brain line with human GALC G270D), HMU-beta-Gal fluorescence, 48 h; series mostly up to 57.5 µM; activation: at the top concentration", "method_in_brief": "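Fluorescence readout: HMU-β-gal cleavage by mutant GALC (0.1 mM final, citrate/phosphate pH 5.2 with 1 mg/mL taurocholate), stopped with carbonate/bicarbonate plus Triton X-100. Cells: murine Twitcher 145M-Twi expressing human G270D GALC; qHTS for activators.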", "values": [{"smiles": "CCC(C(=O)OCc1cc(=O)n2nc(C)sc2n1)c1ccccc1", "note": "(configuration not stated)", "activation": "inactive: -3.14%"}, {"smiles": "Cc1cccc(-c2noc(CN(C3CCCCC3)S(=O)(=O)c3ccc(F)cc3)n2)c1", "activation": "inactive: -12.2%"}, {"smiles": "COc1ccc(CNC(=O)CN(c2ccc(C(C)C)cc2)S(=O)(=O)c2c(C)nn(C)c2C)cc1", "activation": "inactive: -19%"}, {"smiles": "COc1ccc(NC(=O)CSc2nc3ccccc3nc2N2CCC(C)CC2)cc1", "activation": "inactive: -14.3%"}, {"smiles": "COc1ccccc1OCC(O)COC(N)=O", "note": "(configuration not stated)", "activation": "inactive: -39.5%"}, {"smiles": "O=C(CSC1=Nc2ccccc2N=C(c2ccc(F)cc2)C1)Nc1cccc(C(F)(F)F)c1", "activation": "inactive: -30.2%"}, {"smiles": "CCOC(=O)C1CCCN(C(=O)C2CCN(S(=O)(=O)c3c(C)noc3/C=C/c3ccccc3F)CC2)C1", "note": "(configuration not stated)", "activation": "inactive: -5.48%"}, {"smiles": "Cc1cc(C)c(C)c(OCC(=O)Nc2ccc(S(=O)(=O)Nc3nc(C)cc(C)n3)cc2)c1", "activation": "inactive: -10.4%"}, {"smiles": "Cc1ccccc1OCC(=O)OCc1cc(=O)n2nc(C3CC3)sc2n1", "activation": "inactive: -11.7%"}, {"smiles": "CCC(=O)N1CCc2cc(Br)cc(S(=O)(=O)CCC(=O)N3CCN(c4ccc(F)cc4)CC3)c21", "activation": "inactive: -7.73%"}, {"smiles": "COc1ccccc1NC(=O)CCn1nc(-c2ccccc2OC)c2c(C)cc(C)nc21", "activation": "inactive: -24.8%"}, {"smiles": "Cc1ccccc1NC(=O)Nc1nnc(N2CCCCCC2)s1", "activation": "inactive: -4.39%"}, {"smiles": "COc1ccc(CC(=O)NCCc2sc3nc(-c4ccc(OC)cc4)nn3c2C)cc1", "activation": "inactive: -32%"}, {"smiles": "COc1cccc(N2CCN(C(=O)C3Cc4ccccc4N3C(C)=O)CC2)c1", "note": "(configuration not stated)", "activation": "inactive: -9.87%"}, {"smiles": "O=C(C1CCC1)N1CCCc2cc(S(=O)(=O)N3CCN(c4ccccc4)CC3)ccc21", "activation": "inactive: -23.7%"}, {"smiles": "CCc1ccc(OCc2cc(=O)n3c4c(sc3n2)CCCC4)cc1", "activation": "inactive: -3.78%"}, {"smiles": "CCCN(CCC)CCCNC(=O)c1cn(CC)c2ccc(S(=O)(=O)N(C)C3CCCCC3)cc2c1=O", "activation": "inactive: -5.4%"}, {"smiles": "Cc1ccc(S(=O)(=O)c2nnn3c2nc(NC(C)C)c2sccc23)cc1", "activation": "inactive: -9.24%"}, {"smiles": "Cc1cccc(-c2nc3ccccc3n2Cc2ccccc2)c1", "activation": "inactive: -18.6%"}, {"smiles": "CCOC(=O)c1c(C)[nH]c(CCC(=O)Nc2c(C)cccc2CC)c1C", "activation": "inactive: -8.52%"}, {"smiles": "CCNc1ncnc2c1nnn2C", "activation": "inactive: -18.7%"}, {"smiles": "CCOC(=O)N1CCc2c(sc(NCc3cccc(F)c3)c2C(=O)Nc2ccc(OC)cc2OC)C1", "activation": "inactive: -22.4%"}, {"smiles": "CCC(=O)Nc1ccccc1-c1nc2ccccc2n(CC(=O)c2ccc(Cl)cc2)c1=O", "activation": "inactive: -5.51%"}, {"smiles": "COc1ccccc1NC(=O)C1=C(C)Nc2nc(CCCO)nn2C1c1cccc(O)c1", "note": "(configuration not stated)", "activation": "inactive: -8.4%"}, {"smiles": "Nc1c2c(nc3ccccc13)CCCC2O", "note": "(configuration not stated)", "activation": "inactive: -7.3%"}, {"smiles": "COc1ccc2c(Sc3ccc(C)cc3)c(C(=O)NCc3ccc(F)cc3)[nH]c2c1", "activation": "inactive: -8.53%"}, {"smiles": "COc1cc(C2CC(=O)c3cnc(N4CCN(CCO)CC4)nc3C2)cc(OC)c1OC", "note": "(configuration not stated)", "activation": "inactive: -14.5%"}, {"smiles": "Cn1c(=O)c(=O)n(C)c2cc(S(=O)(=O)N3CCN(c4ccc(F)cc4)CC3)ccc21", "activation": "inactive: -0.856%"}, {"smiles": "O=C(Cn1cc(S(=O)(=O)N2CCCC2)c(S(=O)(=O)N2CCCC2)c1)Nc1ccccc1", "activation": "inactive: -14.7%"}, {"smiles": "O=C(Nc1cccc(NC(=O)c2ccccc2F)c1)c1ccccc1", "activation": "inactive: -14.5%"}, {"smiles": "CC(C)c1ccc(NC(=O)CC2NCCNC2=O)cc1", "note": "(configuration not stated)", "activation": "inactive: -8.42%"}, {"smiles": "O=C(CSc1nc2c(oc3ccccc32)c(=O)n1-c1ccccc1)Nc1ccccc1F", "activation": "inactive: -3.26%"}, {"smiles": "CCCC(=O)Nc1cc(C(=O)NCc2ccccc2)ccc1S(=O)(=O)c1ccc(Cl)cc1", "activation": "inactive: -13.5%"}, {"smiles": "CCOC(=O)c1ccc(N2C(=O)c3n[nH]c(-c4ccco4)c3C2c2ccc(OCC)cc2)cc1", "note": "(configuration not stated)", "activation": "inactive: -18%"}, {"smiles": "Cc1ccc(S(=O)(=O)N2CCCc3cc(NS(=O)(=O)c4cc(F)ccc4F)ccc32)cc1", "activation": "inactive: -5.94%"}, {"smiles": "O=C(CCCn1c(=O)c2ccccc2n(Cc2cccc(Cl)c2)c1=O)NCCc1ccc(Cl)cc1", "activation": "inactive: 6.31%"}, {"smiles": "CCn1c(=O)n(-c2ccc(F)cc2)c(=O)c2sc3ccccc3c21", "activation": "inactive: -15.6%"}, {"smiles": "CCOC(=O)c1c(Nc2ccc(F)cc2)nnc(-c2ccccc2)c1-c1ccccc1", "activation": "inactive: -40.3%"}, {"smiles": "CC(C)(C)OC(=O)N1CCC(c2c(C(=O)N3CCN(c4ccccc4)CC3)cnn2-c2ccccc2)CC1", "activation": "inactive: 1.56%"}, {"smiles": "COc1ccc(CCNC(=O)c2ccc3c(c2)N(Cc2cc(C)ccc2C)C(=O)c2ccccc2S3=O)cc1OC", "note": "(configuration not stated)", "activation": "inactive: -4.21%"}, {"smiles": "CCCCOc1ccc(CNC(=O)Cc2ccc(NC(=O)N3CCCCc4ccccc43)cc2)cc1", "activation": "inactive: -0.939%"}, {"smiles": "COc1ccc(-c2nc(SCC(=O)N3CCN(c4ccc(F)cc4)CC3)n[nH]2)cc1", "activation": "inactive: 12.4%"}, {"smiles": "CC(=O)N1CCC2(CC1)OC(=O)C(C)=C2C(=O)Nc1cc(C)ccc1C", "activation": "inactive: -11.8%"}, {"smiles": "COC(=O)c1sc2cccc(F)c2c1S(=O)(=O)Nc1ccc(N(C)C)cc1", "activation": "inactive: -3.04%"}, {"smiles": "Cc1cc(Br)ccc1NC(=O)Cn1cnc2sc(C)c(S(=O)(=O)N3CCN(C)CC3)c2c1=O", "activation": "inactive: -5.47%"}, {"smiles": "CCCN(C(=O)c1cc2ccc3cccnc3c2[nH]1)c1ccc(F)cc1", "activation": "inactive: -5.69%"}, {"smiles": "O=C(c1ccccc1Cl)N(Cc1ccco1)c1ccccn1", "activation": "inactive: -9.01%"}, {"smiles": "COc1ccc(Br)c2c1-c1nc(NC(=O)c3ccccc3F)sc1C2", "activation": "inactive: 3.56%"}, {"smiles": "CCCC(=O)Nc1ccc(O)c(C(C)=O)c1", "activation": "inactive: -9.85%"}, {"smiles": "COC(=O)c1ccccc1NC(=O)c1ccc(COc2cc(C)cc(C)c2)o1", "activation": "inactive: -28.4%"}, {"smiles": "COc1ccc(CCCc2nnc(SCC(=O)Nc3cc(C)ccc3C)o2)cc1", "activation": "inactive: -22.5%"}, {"smiles": "CCc1ccc(-c2[nH]nc3nc(-c4ccc(OC)cc4)cc(C(=O)NCCCOC)c23)cc1", "activation": "inactive: -22.2%"}, {"smiles": "COc1ccc(Cl)cc1NC(=O)Cn1c(=O)n(Cc2cccs2)c(=O)c2cccnc21", "activation": "inactive: -14.6%"}, {"smiles": "COc1ccc(CNC(=O)Cc2c(C)c3c(cc(C)c4c(C)coc43)oc2=O)cc1OC", "activation": "inactive: -8.2%"}, {"smiles": "CCOC(=O)c1cc(-c2ccc(C)cc2)n(CC(=O)Nc2ccccc2F)c1C", "activation": "inactive: -9.82%"}, {"smiles": "CCOc1ccc(NC(=O)CCn2c(=O)c3cccn3c3cccnc32)cc1", "activation": "inactive: -7.89%"}, {"smiles": "Cc1nn(CC(=O)NCc2ccc(N(C)C)cc2)c(=O)c2c(C)n(-c3ccc(Cl)cc3)nc12", "activation": "inactive: 0.431%"}, {"smiles": "Cc1nc2ccc(S(=O)(=O)N(CC(=O)Nc3cccc(Cl)c3)Cc3ccccc3)cc2s1", "activation": "inactive: -0.971%"}, {"smiles": "CCCN(CCC)C(=O)Cn1c(=O)n(-c2ccc(C)c(C)c2)c(=O)c2c3c(sc21)CCCCC3", "activation": "inactive: -7.57%"}, {"smiles": "Cc1cc(NC(=O)c2cc(-c3cccc(Cl)c3)on2)nn1Cc1ccc(Cl)cc1", "activation": "inactive: -27.4%"}, {"smiles": "CC1CCC(NC(=O)CCc2cn(Cc3ccccc3Cl)c3ccccc23)CC1", "note": "(configuration not stated)", "activation": "inactive: 1.4%"}, {"smiles": "Cc1cc2nn(-c3ccccc3)nc2cc1NC(=O)COc1ccc(Cl)cc1", "activation": "inactive: -3.43%"}]}]}
